The text below walks through data of PMC7819943, “Rice protein-binding microarrays: a tool to detect cis-acting elements near promoter regions in rice”.

The list shows a part of the results.

This assay deals with T1, OsWOX13 (Oryza sativa, UniProt Q5QMM3 1-267).
T1 sequence: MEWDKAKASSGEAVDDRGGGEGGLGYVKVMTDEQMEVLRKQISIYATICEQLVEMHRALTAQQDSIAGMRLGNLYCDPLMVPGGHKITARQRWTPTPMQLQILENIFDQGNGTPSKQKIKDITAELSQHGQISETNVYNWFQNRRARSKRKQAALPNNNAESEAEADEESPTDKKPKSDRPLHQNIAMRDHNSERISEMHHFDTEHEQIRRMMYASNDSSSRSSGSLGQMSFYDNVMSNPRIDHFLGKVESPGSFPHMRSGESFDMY
The assay is described as follows: protein-binding microarray (RPBM); PBS, 2% BSA, 51.3 ng/ul salmon testes DNA, 50 uM zinc acetate, 200 nM TF, 25 C, 1 h; high values mean tight binding. Conditions: protein: recombinant; tags: N-terminal polyhistidine and DsRed monomer fusion (pET32a); label: CyDye5-dUTP incorporated in the synthesized complementary strand; 3' TTTTT single-stranded linker to array surface; dsDNA, one strand shown. The method, boiled down:
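Binding signal is reported as fluorescence intensity per feature (arbitrary units) from an Axon 4000B scanner. Incubation used 200 nM of each Ni–NTA-purified, N-terminally polyhistidine- and DsRed-fused transcription factor from E. coli BL21-CodonPlus on a double-stranded custom Agilent array for 1 h at 25 °C, with 50 µM zinc acetate in the buffer, followed by washing.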
As for “CATAATTAAGGTCTCTAGCTGGCTAACTGTTTGCATACTCCGGAGTCACCTAGTGCAG”, the binding signal was 8050 fluorescence intensity (a.u.).

For “AACCCAATCACACCGGATTAGTTGAGCTCGTTTTGCGTTTCGGAGTCACCTAGTGCAG”, the binding signal is 17600 fluorescence intensity (a.u.). Then “GGGATCGGGGTAATTGATGATTTCTTATGCCAGTTAATGCCGGAGTCACCTAGTGCAG”, with 28100 fluorescence intensity (a.u.); and “TGCATTAATTGCTTCCATATCTGGGGTTCAAACTGATATCCGGAGTCACCTAGTGCAG”, with 10200 fluorescence intensity (a.u.); and “AGTGTAATTGGATTGTAAATCGGATAAGTAATTTGAGAGACGGAGTCACCTAGTGCAG”, with 29400 fluorescence intensity (a.u.). Then “ATACCCTTAACCTTGTTAATTTAATGTTTGATCAGGCAACCGGAGTCACCTAGTGCAG”, with 6220 fluorescence intensity (a.u.).

With “GCTCACCTTGTGATTAGCATAGCCACTGCAGATATCGAATCGGAGTCACCTAGTGCAG”, the binding signal was 3880 fluorescence intensity (a.u.). Regarding “TTTAAAATGAGAATAATTACATTGGAATTTGATAAAGGAGCGGAGTCACCTAGTGCAG”, the binding signal was 16900 fluorescence intensity (a.u.). As for “TATGTTATAATTGCATTCAGAGCACGAACAGCGCTAGACTCGGAGTCACCTAGTGCAG”, the binding signal is 4630 fluorescence intensity (a.u.).

“ATTATATGATTAATGAATATGCATATCGATAATATGGACACGGAGTCACCTAGTGCAG”: the binding signal was 14800 fluorescence intensity (a.u.). Then “GATTATGATTAGTATTTTCATTGTTATTAGATGATAAAATCGGAGTCACCTAGTGCAG”, with 3620 fluorescence intensity (a.u.); and “ACCAAACAATCATATGAGACACACAGGTCCATCACATGAGCGGAGTCACCTAGTGCAG”, with 4870 fluorescence intensity (a.u.). The result for “AAATGAAATTTGAAGCAATTGATATTGGTGTTGCGGTCATCGGAGTCACCTAGTGCAG” reads 5540 fluorescence intensity (a.u.). With “GTGTAAAATATATATATAATTTTGTAGGGTGCTAGCGCATCGGAGTCACCTAGTGCAG”, the binding signal is 3610 fluorescence intensity (a.u.).

Take “CCACTAAATTGAAATGACCGGGCCTGGTAAACCCAACGAGCGGAGTCACCTAGTGCAG”: the binding signal is 26800 fluorescence intensity (a.u.). The result for “TATAATTTAGACAAACTTAAATATTACTAAATTAGGCAAACGGAGTCACCTAGTGCAG” reads 13600 fluorescence intensity (a.u.); that for “AATAATCAATAACTATCACGCGCAATATGAATATTACACACGGAGTCACCTAGTGCAG”, 6040 fluorescence intensity (a.u.); that for “GCTATTGACAGCTTCAGGAGAACATTATCTGATGTGGTTACGGAGTCACCTAGTGCAG”, 7760 fluorescence intensity (a.u.). Then “AGTCATGTGATAGATCACATCTCCAATATTTTAGTACCCGCGGAGTCACCTAGTGCAG”, with 4870 fluorescence intensity (a.u.). The result for “GTAAATTAGCAAGCAGCAGCATCAGTAACAGCAGCCATGACGGAGTCACCTAGTGCAG” reads 7970 fluorescence intensity (a.u.). Regarding “GCTAATTTTGTTATACAAATAAGTGCCAAAAGAACATCCTCGGAGTCACCTAGTGCAG”, the binding signal was 4230 fluorescence intensity (a.u.). As to “TGTTAATGTCACTTGCTAATCACTAGAATTTAAATGCGTGCGGAGTCACCTAGTGCAG”, the binding signal was 8770 fluorescence intensity (a.u.). The result for “GACTTCTGATTTGCGTGGCTTAGTGAACAGGGCACCTCCTCGGAGTCACCTAGTGCAG” reads 6320 fluorescence intensity (a.u.); that for “TGCTTATATTTGTAGCTAATTATTCTTTCTATGACAGACGCGGAGTCACCTAGTGCAG”, 3990 fluorescence intensity (a.u.). The result for “TGTATATACACCCATCAATCACTTGACCAAGGTAACATGCCGGAGTCACCTAGTGCAG” reads 11500 fluorescence intensity (a.u.); that for “TTCGGGGATGTGAATGGGAATGGATTGGATCTTGGGATTACGGAGTCACCTAGTGCAG”, 3670 fluorescence intensity (a.u.); that for “TATTTAATTTTACGGTAAGTGTACGATAACAAGTTGAGTGCGGAGTCACCTAGTGCAG”, 12100 fluorescence intensity (a.u.). The result for “TTTAATTTCTTTATTTAAAATTTCATGCTATACAGTTTTCCGGAGTCACCTAGTGCAG” reads 6480 fluorescence intensity (a.u.). Consider “TCTTGATGGCACAATTCCTGACTCTTTCGTCAATTTGAAACGGAGTCACCTAGTGCAG”, for which the binding signal was 4720 fluorescence intensity (a.u.). The result for “ATTCGGATTGGTATCAATTCATGATCCCCAAGATTAGTTACGGAGTCACCTAGTGCAG” reads 10800 fluorescence intensity (a.u.); that for “CTCGCTCTTCATCACTGCCAATTGACCCTAAATCTCATGTCGGAGTCACCTAGTGCAG”, 3230 fluorescence intensity (a.u.).

“CCTAACTGATGCACCCCAAATTCCATACCATATGTACCTTCGGAGTCACCTAGTGCAG”: the binding signal was 19800 fluorescence intensity (a.u.). The result for “TAAGCTAATAATGCTTAATTAATCATGTGGTAACCTCGCCCGGAGTCACCTAGTGCAG” reads 8100 fluorescence intensity (a.u.). With “CCATAATCTTTCCTAATTACTATTATTAGTGTTAAGTATACGGAGTCACCTAGTGCAG”, the binding signal was 8910 fluorescence intensity (a.u.). Then “TTATAATTACTTATAGTACCTCCAAAACTAATTTAGCAGCCGGAGTCACCTAGTGCAG”, with 14700 fluorescence intensity (a.u.); and “AAATATATTGTAATTACACCGTAATTATGCTATAGTTATACGGAGTCACCTAGTGCAG”, with 17300 fluorescence intensity (a.u.); and “TCTGTTGATGGATGTGGATGTTGTGCAGGTGACGCTGCAGCGGAGTCACCTAGTGCAG”, with 5150 fluorescence intensity (a.u.). As to “AATTGATGGAAAATTGTCCCTCGTTTCGCTCCGGCCTGCCCGGAGTCACCTAGTGCAG”, the binding signal is 20200 fluorescence intensity (a.u.).

In the case of “TTGCTAATACTTAATTAATCACGTGTTAATGTACCGCCCCCGGAGTCACCTAGTGCAG”, the binding signal was 20500 fluorescence intensity (a.u.). With “GTCTCAATTCAAAACTAATTTATGAACATTTCAATTGAATCGGAGTCACCTAGTGCAG”, the binding signal was 6370 fluorescence intensity (a.u.). The result for “TATAAATCAAATTAGGACAATGTTATTCATCACAGTAACACGGAGTCACCTAGTGCAG” reads 6120 fluorescence intensity (a.u.); that for “ACAATTGAAGATAAATGACAAACCAATAAACCATTTGTTTCGGAGTCACCTAGTGCAG”, 5080 fluorescence intensity (a.u.).
